These results are taken from PubChem BioAssay AID488969 (Vanderbilt High Throughput Screening Facility, 2010).

SMILES strings stand for the structures. Over roughly 110,000 compounds, “z-score” has its median near -0.1; the highest 2% begin near 2. The list shows a part of the results.

The assay addresses Metabotropic glutamate receptor 8 (Rattus norvegicus) (UniProt P70579). Description: mGluR8 Gi/Go-coupled signaling modulation – cell-based, rat, thallium flux, HTS, primary screen (AID 488969). The settings on record: HEK293 rat mGluR8, GIRK (G protein-gated inwardly rectifying potassium channel) thallium flux, FluoZin2; at 10 µM; stronger effect = higher value; submaximal glutamate (EC20) added with thallium.
Sequence of UniProt P70579 (P70579 whole entry, looked up): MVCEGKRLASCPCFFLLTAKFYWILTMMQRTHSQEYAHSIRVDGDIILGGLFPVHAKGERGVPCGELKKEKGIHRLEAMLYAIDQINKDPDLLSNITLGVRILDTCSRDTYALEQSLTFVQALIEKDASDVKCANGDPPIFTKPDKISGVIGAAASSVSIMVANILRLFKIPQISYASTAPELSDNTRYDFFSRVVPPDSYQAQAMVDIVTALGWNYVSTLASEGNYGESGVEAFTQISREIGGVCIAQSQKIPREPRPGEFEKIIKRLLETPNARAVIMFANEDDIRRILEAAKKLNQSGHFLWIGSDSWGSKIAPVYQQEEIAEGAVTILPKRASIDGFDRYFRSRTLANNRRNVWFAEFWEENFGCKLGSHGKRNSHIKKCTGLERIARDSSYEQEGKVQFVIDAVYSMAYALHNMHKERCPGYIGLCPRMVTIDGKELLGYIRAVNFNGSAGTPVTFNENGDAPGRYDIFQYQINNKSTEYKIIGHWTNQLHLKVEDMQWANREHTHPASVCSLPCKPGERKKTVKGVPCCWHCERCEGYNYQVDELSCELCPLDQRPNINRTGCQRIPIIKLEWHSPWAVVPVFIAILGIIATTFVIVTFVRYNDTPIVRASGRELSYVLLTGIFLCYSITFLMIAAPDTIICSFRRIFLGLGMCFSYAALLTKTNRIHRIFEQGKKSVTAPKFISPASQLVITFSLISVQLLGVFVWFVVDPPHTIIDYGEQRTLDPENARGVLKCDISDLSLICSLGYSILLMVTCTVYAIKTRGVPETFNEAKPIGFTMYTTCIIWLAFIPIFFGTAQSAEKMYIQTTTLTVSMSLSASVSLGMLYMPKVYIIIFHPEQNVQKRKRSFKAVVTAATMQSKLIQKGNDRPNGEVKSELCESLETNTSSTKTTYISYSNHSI
`O=C(Oc1ccc(N(Cc2cccs2)C2=NS(=O)(=O)c3ccccc32)cc1)c1ccccc1F`: the z-score is -0.287.
For `COc1ccc(CNC(=S)Nc2cc(OC)ccc2OC)cc1` the value was 0.0129; for `CCn1c(SCC(=O)Nc2cccc(C)c2)nc2c(c1=O)SC(C)C2` (stereo unspecified), -1.46.
As to `Cn1nc([N+](=O)[O-])nc1Oc1ccc2ccccc2c1`, the z-score was -0.216.
Regarding `CCN(CC)S(=O)(=O)c1ccc(NC(=O)CCC2CCCCC2)cc1`, the z-score is -0.664.
`CC1CCN(c2c(NCC3CCC(C(=O)N4CCc5ccccc5C4)CC3)c(=O)c2=O)CC1` (stereo unspecified) came in with a z-score of 1.82.
Regarding `CC(C)(C)c1cc2cccnc2n1Cc1ccccc1`, the z-score worked out at 1.05.
The same measure for `Cc1ccc2[nH]cc(C(=O)CN3CCC4(CC3)OCCO4)c2c1`: 0.75; for `COc1ccccc1CCNC(=O)CSc1nc(-c2ccco2)cc(C(F)(F)F)n1`: 0.158; for `O=[N+]([O-])c1ccccc1/C=N/n1c(COc2ccccc2)n[nH]c1=S`: 0.0224.
In the case of `Nc1cc2ccccc2oc1=O`, the z-score was -0.206.
In the case of `COc1ccc(NS(=O)(=O)c2cc(NC(=O)c3cnc(C)cn3)ccc2N2CCCCC2)cc1`, the z-score is -0.33.
For `O=C(NCCN1CCOCC1)c1cnn2c(-c3ccccc3)cc(-c3ccccc3)nc12` the value was -0.617.
Regarding `O=C(COc1ccc(S(=O)(=O)NC2CCCCC2)cc1)NCC1CCCO1` (stereo unspecified), the z-score was -0.128.
Consider `COc1cccc(NC(=S)NCCC(c2ccccc2)c2ccccc2)c1`, for which the z-score is 0.259.
`CCOC(=O)C1=C(CC)Nc2ccccc2N=C1NC(=O)Nc1ccccc1OC` had a z-score of 0.249.
For `Cc1[nH]c(=O)c(C(=O)/C=C/c2ccccc2F)c2c1CCCC2` the value was -0.788; for `COc1cc(C)c(CNc2cc(C)cc(C)c2)cc1C`, -0.229; for `COc1ccc(OC)c(-c2cc(C(=O)NCc3cccs3)no2)c1`, -0.449.
Regarding `Cc1c2c(n3c(nc4ccccc43)c1C#N)N(Cc1cccnc1)CC2`, the z-score is -2.28.
The compound `COc1cc(/C=N/NC(=O)CNc2n[nH]c(=O)[nH]c2=O)ccc1O` registered a z-score of 0.134.
For `COc1ccc(NC(=O)C(c2cc3c(cc2[N+](=O)[O-])OCO3)N(C)Cc2ccccc2)cc1` (stereo unspecified), the z-score was -0.0902.
For `COc1ccc(CCN2C(=O)CC(N3CCOCC3)C2=O)cc1OC` (stereo unspecified) the value was -0.187; for `CCn1cc(C(=O)OCc2ccc(F)cc2)c(=O)c2ccc(C)nc21`, -0.684; for `O=C(CCl)Nc1ccccc1Sc1ccc(Cl)cc1`, -0.191.
For the compound `CC12c3ccccc3C(c3ccccc31)C1C(=O)N(Cc3cccnc3)C(=O)[C@H]12` (stereo partly specified), the z-score was 0.0392.
In the case of `O=S(=O)(NCC1CCCO1)c1cc(Cl)ccc1Cl` (stereo unspecified), the z-score was -0.0137.
Regarding `CC1C/C(=N/N=C2/NC(=O)CS2)CC(C)(C)C1` (stereo unspecified), the z-score was -0.18.
In the case of `CCOc1ccc(Br)cc1S(=O)(=O)Nc1ccccc1N1CCOCC1`, the z-score was 0.121.
In the case of `Nc1ncnc(Nc2cccc(C(F)(F)F)c2)n1`, the z-score stood at 0.115.
For the compound `COC(=O)c1ccc(NC(=O)CSC2=NC(=O)C(c3ccccc3)C(=O)N2)cc1` (stereo unspecified), the z-score is -0.751.
The same measure for `Cc1ccc(NC(=O)c2cncc(Br)c2)c([N+](=O)[O-])c1`: 0.0419; for `CC1=N/C(=C\c2ccc3c(c2)OCO3)C(=O)N1c1ccc(C(=O)O)cc1`: -0.2.
Turning to `CCOc1ccccc1OCC(=O)NC1CCCCC1`, the z-score is -0.557.
In turn, `CN(C)CCCn1c(NC(=O)C2CCCCC2)nc2ccccc21` had a z-score of 0.184.
Consider `COc1ccc2c(CC(=O)Nc3nnc(C4CC4)s3)coc2c1`, for which the z-score is -0.329.
With `O=C(NCc1ccncc1)C(=O)NCC(c1ccccc1)c1ccccc1`, the z-score was -1.76.
With `Clc1cccc(C[n+]2cc(-c3ccccc3)n3c2CCC3)c1`, the z-score was -0.151.
The same measure for `C/C(=C/C(=O)NCc1ccccc1)C(=O)O`: 0.149.
For `Cc1nc2cc(-c3ccsc3-n3c(C)ccc3C)[nH]n2c(=O)c1Cl` the value was 1.43; for `O=S(=O)(Nc1nccs1)c1ccc2c(c1)OCCO2`, 0.327; for `Cn1c(=O)c2c(nc(SCC(=O)N3c4ccccc4CCc4ccccc43)n2C)n(C)c1=O`, -0.239.
As to `CC(C)CC[n+]1ccn(-c2nc3ccccc3nc2[N-]S(=O)(=O)c2ccccc2)c1`, the z-score is -0.323.
`Cc1csc(NC(=O)CCn2c(=O)oc3ccccc32)n1` had a z-score of 0.0239.
The same measure for `CCC(=O)Nc1nc2ccccc2n1Cc1ccccc1C`: -0.561; for `O=C(/C=C/c1cccs1)N1CCN(c2ccccc2F)CC1`: 0.0251; for `CSc1nc(N2CCOCC2)c2c3c(sc2n1)CCC3`: -1.18.
`O=c1c2ccccc2n(Cc2cccc(F)c2)c(=O)n1C1CCCC1`: the z-score was -1.
In the case of `Cc1[nH]n(-c2cccc(Cl)c2)c(=O)c1-c1ccccc1`, the z-score was 0.13.
On to `Cc1ccccc1S(=O)(=O)c1c(C)cc(-c2ccccc2)[nH]c1=O`, for which the z-score is -0.0464.
As for `O=C(COC(=O)c1cc2c(s1)CCCC2)NCc1ccccc1Cl`, the z-score is -0.272.
Take `COC(=O)c1c(N2C(=O)[C@H]3[C@@H](C2=O)[C@]2(C(=O)Nc4c(C)cccc42)N2CCC[C@@H]32)sc(C)c1C`: the z-score was -0.136.
With `CCOc1cc(C(N)=O)cc(OCC)c1OCC`, the z-score is -0.232.
For `Cc1ccc(-c2nc3ccccc3s2)cc1NC(=S)NC(=O)c1ccccc1` the value was 0.744; for `CC(NC(=O)c1nn(C)c(=O)c2ccccc12)c1ccc(F)cc1` (stereo unspecified), -0.0748.
As to `COc1ccc(C(C(=O)NC2CCCC2)N(Cc2ccc(C)cc2)C(=O)c2ccn[nH]2)cc1OC` (stereo unspecified), the z-score was -0.0852.
In turn, `CCOC(=O)N/N=C(C)/C=C/c1ccccc1` registered a z-score of 0.121.
For the compound `Cc1ccc2nc(NC(=O)CSCC(=O)OCC(=O)c3ccc(Br)cc3)sc2c1`, the z-score is -0.123.
For `Cc1coc2cc3oc(=O)cc(C)c3cc12` the value was 0.0366; for `O=C(NCC(c1cccnc1)N1CCOCC1)C1CCCCC1` (stereo unspecified), 0.409.
In the case of `COC(=O)[C@H](CCSC)NC(=O)NCc1ccc(S(N)(=O)=O)cc1`, the z-score was -0.181.
Take `O=C(CSc1nnc(-c2cccnc2)n1Cc1ccco1)c1ccc(Cl)cc1`: the z-score was -0.222.
In turn, `Cc1cc(CNC(=O)c2cc(Br)ccc2Cl)nn1C` gave a z-score of 0.233.
As to `COC(=O)c1ccc(-c2n[nH]c(=O)c3ccccc23)cc1`, the z-score was -0.383.
As to `O=C(NCCc1c[nH]c2ccccc12)c1cccnc1`, the z-score is -0.104.
`COc1ccc(C2C(C(=O)NCCN(C)C)c3ccccc3C(=O)N2C)cc1OC` (stereo unspecified): the z-score was 0.322.
Take `O=C(NCCc1cccc(Cl)c1)c1cccnc1`: the z-score is -0.413.
`O=C(Nc1cccc(Cl)c1)c1ccc(F)c(S(=O)(=O)NCc2cccs2)c1` showed a z-score of 1.5.
For `O=c1c(=NNc2ccccc2Cl)c(=O)c2ccccc12` the value was -0.28; for `Cc1ccc(-c2noc(CN3CCN(c4ccccc4F)CC3)n2)cc1`, -0.0322; for `COc1ccc(C2CC(c3cccs3)=NN2C(=O)CSc2nc3ccccc3o2)cc1` (stereo unspecified), -0.84.
